# “And” between values parts separate entries of the source, which are not always exact repeats. Equal values may be shown once. Whole data set: some 5,300 compounds, median “PER2::LUC luminescence relative to vehicle control” near 0.96, cut for the highest 2% near 1.3. This is one part of the list.
# Test system: mPer2Luc MEF
# Test: PER2::LUC luminescence relative to vehicle control (fold of vehicle); higher = higher PER2::LUC reporter signal
# Settings: 10 µM
# Summary of the method: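 The value is PER2::LUC luminescence expressed as fold of vehicle control. Mouse embryonic fibroblasts carrying the mPer2Luc reporter were seeded at ~3000 cells per well in 384-well plates and grown in DMEM with 10% FBS at 37 °C and 5% CO2. Compounds from commercial libraries were added at 10 μM 48 h after seeding, and luminescence was read with the ONE-Glo luciferase assay system 24 h and 30 h after treatment, followed by an alamarBlue viability assay.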
smiles,measurement,setting,value
CCCC(=O)Nc1cccc(NC(=O)c2ccccc2Br)c1,PER2::LUC luminescence,time after treatment 24 h,1.22
same,PER2::LUC luminescence,time after treatment 30 h,1.12
C#CC1(O)CC[C@H]2[C@@H]3CCC4=CC(=O)CC[C@@H]4[C@H]3CC[C@@]21CC (stereo partly specified),PER2::LUC luminescence,time after treatment 24 h,0.847
same,PER2::LUC luminescence,time after treatment 30 h,0.942
CN1CC(=O)N=C1NC(=O)Nc1cccc(Cl)c1,PER2::LUC luminescence,time after treatment 24 h,0.949
same,PER2::LUC luminescence,time after treatment 30 h,1.1
CC1=C(C(=O)O)N2C(=O)[C@@H](NC(=O)[C@H](N)c3ccccc3)[C@H]2SC1,PER2::LUC luminescence,time after treatment 24 h,0.89 and 1.25 and 1.14
same,PER2::LUC luminescence,time after treatment 30 h,1.07 and 0.992 and 1.03
CCCc1c(OCCCOc2ccc(OCC(=O)O)cc2)ccc(C(C)=O)c1O,PER2::LUC luminescence,time after treatment 24 h,1.04
same,PER2::LUC luminescence,time after treatment 30 h,0.856
O=C1CC2(CCCC2)CC(=O)N1CCCCNCC1COc2ccccc2O1 (stereo unspecified),PER2::LUC luminescence,time after treatment 24 h,0.89
same,PER2::LUC luminescence,time after treatment 30 h,0.769
Cc1cccn2c(=O)c(-c3nnn[nH]3)cnc12,PER2::LUC luminescence,time after treatment 24 h,1.24
same,PER2::LUC luminescence,time after treatment 30 h,1
CC[C@H](C)C(=O)O[C@H]1C[C@H](O)C=C2C=C[C@H](C)[C@H](CC[C@@H](O)C[C@@H](O)CC(=O)O)[C@H]21,PER2::LUC luminescence,time after treatment 24 h,1.15
same,PER2::LUC luminescence,time after treatment 30 h,1.02
CCCn1c(=O)c2[nH]c(-c3ccc(OCC(=O)NCCN)cc3)nc2n(CCC)c1=O,PER2::LUC luminescence,time after treatment 24 h,0.998
same,PER2::LUC luminescence,time after treatment 30 h,0.938
C[C@H](CCC(=O)NCCS(=O)(=O)O)[C@H]1CC[C@H]2[C@@H]3[C@H](O)C[C@@H]4C[C@H](O)CC[C@]4(C)[C@H]3C[C@H](O)[C@]12C,PER2::LUC luminescence,time after treatment 24 h,1.1 and 0.951
same,PER2::LUC luminescence,time after treatment 30 h,0.767 and 0.904
Nc1ccccc1NC(=O)c1ccc(CNc2nccc(-c3cccnc3)n2)cc1,PER2::LUC luminescence,time after treatment 24 h,0.475
same,PER2::LUC luminescence,time after treatment 30 h,0.484
COc1cc(-c2cc(-c3ccc(N4CCNCC4)cc3)cnc2C)cc(OC)c1OC,PER2::LUC luminescence,time after treatment 24 h,0.218
same,PER2::LUC luminescence,time after treatment 30 h,0.23
CN(C)CC(=O)OC[C@@H](O)[C@@H](O)[C@H](O)[C@@H](O)C(=O)O,PER2::LUC luminescence,time after treatment 24 h,0.98
same,PER2::LUC luminescence,time after treatment 30 h,0.945
O=C(OCCN1CCCCC1)c1c[nH]c2ccccc12,PER2::LUC luminescence,time after treatment 24 h,1.02
same,PER2::LUC luminescence,time after treatment 30 h,0.984
CC(C)(C)NCC(O)COc1cccc2c1CC(O)C(O)C2 (stereo unspecified),PER2::LUC luminescence,time after treatment 24 h,0.823
same,PER2::LUC luminescence,time after treatment 30 h,0.955
Cc1cc(O)cc(O)c1C(=O)O,PER2::LUC luminescence,time after treatment 24 h,1.06
same,PER2::LUC luminescence,time after treatment 30 h,1.1
N[C@H](C(=O)O)c1cccc(O)c1,PER2::LUC luminescence,time after treatment 24 h,1.07
same,PER2::LUC luminescence,time after treatment 30 h,1.04
CC(C)(C)OC(=O)Nc1ccc(-c2cc(C(=O)NCCCCCCC(=O)NO)no2)cc1,PER2::LUC luminescence,time after treatment 24 h,0.385
same,PER2::LUC luminescence,time after treatment 30 h,0.34
CC(=O)N[C@H]1[C@H]([C@H](O)[C@H](O)CO)OC(O)(C(=O)O)C[C@@H]1O (stereo partly specified),PER2::LUC luminescence,time after treatment 24 h,1.03
same,PER2::LUC luminescence,time after treatment 30 h,0.921
COc1ccc2c(c1)OC[C@@H](Cc1ccc(OC)c(OC)c1)[C@@H]2O,PER2::LUC luminescence,time after treatment 24 h,0.96
same,PER2::LUC luminescence,time after treatment 30 h,0.933
CC[C@@H]1Cc2cc(O)ccc2C2=C1c1ccc(O)cc1C[C@H]2CC,PER2::LUC luminescence,time after treatment 24 h,0.924
same,PER2::LUC luminescence,time after treatment 30 h,0.862
COc1cc2c(cc1Cc1cccc(Cl)c1F)c(=O)c(C(=O)O)cn2[C@H](CO)C(C)C,PER2::LUC luminescence,time after treatment 24 h,0.892
same,PER2::LUC luminescence,time after treatment 30 h,0.792
CC(C)Cn1c(=O)n(C)c(=O)c2nc[nH]c21,PER2::LUC luminescence,time after treatment 24 h,0.966
same,PER2::LUC luminescence,time after treatment 30 h,0.968
COC(=O)C[C@H]1C(C)(C)C(=O)[C@@H]2CC3C4=CC(=O)O[C@@H](c5ccoc5)[C@]4(C)CC[C@@H]3[C@@]1(C)C2=O (stereo partly specified),PER2::LUC luminescence,time after treatment 24 h,0.871
same,PER2::LUC luminescence,time after treatment 30 h,0.881
Cn1sc(=O)n(Cc2ccccc2)c1=O,PER2::LUC luminescence,time after treatment 24 h,0.727
same,PER2::LUC luminescence,time after treatment 30 h,0.578
OCC(S)CS (stereo unspecified),PER2::LUC luminescence,time after treatment 24 h,1.22
same,PER2::LUC luminescence,time after treatment 30 h,1.08
O=C(c1cccnc1)N1CCOCC1,PER2::LUC luminescence,time after treatment 24 h,1.06
same,PER2::LUC luminescence,time after treatment 30 h,1.01
O=c1c2ccccc2[nH]c(=S)n1CCN1CCC(=C(c2ccc(F)cc2)c2ccc(F)cc2)CC1,PER2::LUC luminescence,time after treatment 24 h,0.97
same,PER2::LUC luminescence,time after treatment 30 h,0.842
CC(=O)NC[C@H]1CN(c2ccc(N3CCOCC3)c(F)c2)C(=O)O1,PER2::LUC luminescence,time after treatment 24 h,1.02
same,PER2::LUC luminescence,time after treatment 30 h,1.18
NC(=O)c1cc[n+](CC2=C(C(=O)[O-])N3C(=O)[C@@H](NC(=O)Cc4cccs4)[C@H]3SC2)cc1,PER2::LUC luminescence,time after treatment 24 h,1.12 and 0.389
same,PER2::LUC luminescence,time after treatment 30 h,0.83 and 0.69
Cc1nccn1CC1CCc2c(c3ccccc3n2C)C1=O (stereo unspecified),PER2::LUC luminescence,time after treatment 24 h,0.971 and 0.984
same,PER2::LUC luminescence,time after treatment 30 h,1.03 and 0.914
CC(=O)NCCCCCCNC(C)=O,PER2::LUC luminescence,time after treatment 24 h,1.17
same,PER2::LUC luminescence,time after treatment 30 h,1.08
O=C1C(O)=C(O)C(=O)C(O)=C1O,PER2::LUC luminescence,time after treatment 24 h,0.984 and 0.949
same,PER2::LUC luminescence,time after treatment 30 h,0.948 and 0.843
CC(C)Cc1ccc([C@@H](C)C(=O)NS(C)(=O)=O)cc1,PER2::LUC luminescence,time after treatment 24 h,0.983 and 1.09
same,PER2::LUC luminescence,time after treatment 30 h,0.985 and 1.06
COc1ccc2c(c1)c(CC(=O)OCC(=O)O)c(C)n2C(=O)c1ccc(Cl)cc1,PER2::LUC luminescence,time after treatment 24 h,0.952
same,PER2::LUC luminescence,time after treatment 30 h,1.04
Cc1c2oc3c(C)ccc(C(=O)N[C@@H]4C(=O)N[C@H](C(C)C)C(=O)N5CCC[C@H]5C(=O)N(C)CC(=O)N(C)[C@@H](C(C)C)C(=O)O[C@@H]4C)c3nc-2c(C(=O)N[C@@H]2C(=O)N[C@H](C(C)C)C(=O)N3CCC[C@H]3C(=O)N(C)CC(=O)N(C)[C@@H](C(C)C)C(=O)O[C@@H]2C)c(N)c1=O,PER2::LUC luminescence,time after treatment 24 h,1.22
same,PER2::LUC luminescence,time after treatment 30 h,1.09
O=C(O)CCCC[C@@H]1CCSS1,PER2::LUC luminescence,time after treatment 24 h,1.03
same,PER2::LUC luminescence,time after treatment 30 h,1.21
COc1ccc(-c2nc3cc(F)ccc3s2)cc1OC,PER2::LUC luminescence,time after treatment 24 h,1.5
same,PER2::LUC luminescence,time after treatment 30 h,1.52
Cc1cccc(Nc2ccncc2S(=O)(=O)NC(=O)NC(C)C)c1,PER2::LUC luminescence,time after treatment 24 h,1.03 and 0.936
same,PER2::LUC luminescence,time after treatment 30 h,0.953 and 0.992
CCN1CCN(Cc2ccc(NC(=O)c3ccc(C)c(/C=C/c4cnc5[nH]ccc5c4OC)c3)cc2C(F)(F)F)CC1,PER2::LUC luminescence,time after treatment 24 h,0.349
same,PER2::LUC luminescence,time after treatment 30 h,0.394
Cn1nnc(-c2ccc(-c3ccc(N4C[C@H](CO)OC4=O)cc3F)cn2)n1,PER2::LUC luminescence,time after treatment 24 h,1.39 and 1.4
same,PER2::LUC luminescence,time after treatment 30 h,1.56 and 1.53
CC(=O)O[C@@H]1CC[C@@]2(C)C(C[C@@H](OC(C)=O)[C@@]3(C)C4=CC(=O)O[C@@H](c5ccoc5)[C@]4(C)CCC23)C1(C)C (stereo partly specified),PER2::LUC luminescence,time after treatment 24 h,0.996
same,PER2::LUC luminescence,time after treatment 30 h,1.04
COc1cc2c(cc1OC)-c1c/c(=N\c3c(C)cc(C)cc3C)n(C)c(=O)n1CC2,PER2::LUC luminescence,time after treatment 24 h,0.0833
same,PER2::LUC luminescence,time after treatment 30 h,0.27
